Results: the RNAGym collection of RNA variant scans (doi:10.1093/nar/gkz1192)
Read counts are not given, so values of variants with three or more changes are uncertain.

B1: CPEB3 Ribozyme (parent)
chain: UAACAGGGGGCCACAGCAGAAGCGUUCACGUCGCAGCCCCUGUCAGAUUCUGGUGAAUCUGCGAAUUCUGCUGUAUAUCUC

Variants of: B1
Test: self-cleavage, relative activity (ratio to wild type); higher = more cleavage; in vitro, sequencing
Procedure, shortened: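 Relative activity was defined as the cleaved/total read fraction for a variant divided by the same fraction for the unmutated ribozyme. CPEB3 self-cleaving ribozyme libraries were made by rounds of error-prone PCR, barcoded, and transcribed in vitro with T7 RNA polymerase for 5 hours at 37°C, and cleavage ran through transcription plus a 15 min DNase I step before EDTA. Illumina sequencing of template-switched reverse transcripts gave the reads, and DNA sequencing mapped the barcodes. Averages come from three batches, using variants with at least 5 reads.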

Variant	self-cleavage
A13U U26C A35G U43C	1.27
C14U U67C U72C A75G	0.09
C14U G46U A77G	0.12
C14U A15U A56U A65U	0.1
C14U U51C U69A U78C	0.58
A13U U60C G61C G63U U78A	0.28
C14A U54G U67C	0.4
A13U U31C C40A C44U U69C	0.06
A13U U26C U67A	0.14
A15C A21G U26C G33A U76C	0.28
C14U A20G C39A U49A A57G	0.05
A13U U43C A56G	0.28
A13U U25A C29U A35G A45U U72A	0.05
A13U U26A U54A U78C	1.05
C14U A21G U48C G63A U72C U80C	0.13
C14U A21G U60C U69C	0.18
A15C A18G U54C	0.21
C14U C32A G46U	0.41
A13U G52A U60C	0.66
A13U U31C U49G U54C	0.31
C14U U51A U58C U78C	0.58
C14U U54A A57G C62A	0.35
C14U A35G A56G C62U A75G U78C	0.69
A13U U41G C68U A77U	0.09

Variant	self-cleavage
C14A C23U U25A A64U U69C	0.18
C14U A15G U49C U66G	0.28
C14U U43C U58C U72G	0.06
A13U U26C G46C C71U	0.07
A13U U49C U66C U69C	0.12
A13U U41A U58C C71U A75U	0.06
C14U U25A U69G	0.13
A15C A28U U31C U41A A64U C68U	0.18
A13U U26A U31A A56G A75G	0.46
A13U U43C U54A	0.91
C14U U41G C62U U67A U72C	0.03
A13U U26C A77U	0.7
A13U U25A U41A U54A U66C U74C	0.07
A13U G33U U48C A57G C62U U72C	0.07
A13U U51A U72C	1.16
C14U A20G A47U A57G U66C U72A A77G	0.03
A13U U25C A56G A64G A77G	0.11
A13U U26C U49C C62G	0.1
A13U U51G U54G U78C	0.7
A15C A35G C40U U43C G46C	0.26
A13U U43A U51C	1.17
A13U U41C U67A	0.88
A13U U41C U67C	0.14
C14U A21G G33A U41G A45G A64G U72A	0.06

Variant	self-cleavage
C14A U26A U49C U51G	0.42
A15C A35G U72G U80A	1.35
A15C A18G G33A U43A A56U U60C	0.08
C14U A20G U58A U67C	0.28
C14A A15G A56U A77U	0.62
A13U U25C A28U U41C U43C U48C U51A	0.16
A13U U41A A56G	0.09
C14U U25C C59U U69C U72A	0.12
A13U U49C A56G U78C	1.06
A13U U26A U43C	0.19
C14A G30U U41C U49A U67C U80C	0.17
A13U U31A U49A C68A	0.12
A15C A45G U49C U60A	0.09
A13U U66C U74A U78A	0.09
A13U U60C U80C	0.41
C14U U26G A35G A45G U78C	0.99
A13U U41C A47G C59U U76C	1.07
C14U U31A U76A	0.78
A13U U26A U41C	0.79
A13U U25C U31A A65G	0.13
A13U U49C U78C	0.24
C14U A65G U74C	1.07
C14A U25C U41C A64G U80C	0.36
C14U U25C A28G U31A G33A U48C	0.06

Variant	self-cleavage
C14U A15C C38U U58C U66A	0.17
A13U U51C U54G	0.87
A13U U26C A56G	0.5
A13U U43C A45G	0.88
C14U C17U U41A	0.39
C14U U31A A57U U69A	0.09
A13U U74C A75U	1.2
A13U U49C U74G	1.06
C14U A35G G70A U76C	1.29
A13U U31C C44U	0.08
C14U G30U U49C U54C U58C U76C U80C	0.03
A13U U41C U58C	0.56
C14U G63A U72C U74C	1.2
C14G A20G U25C G52U	0.15
A13U U31A U43A A45C U51A	0.17
A13U U31G C68U U78A	0.75
C14U G55C U72A	0.33
C14U A47G U48A U67C	0.18
C14U A35U G53A U74C U78C	0.98
A13U U41A U49A C62A U80C	0.25
C14U U26C U43C A45U A64G	0.11
C14U U26C C68U	0.55
C14U A20U U66C	0.12
C14A A18G A45G C59G G63A U74C	0.21

Variant	self-cleavage
C14U G19C A28G U69C	0.12
A13U U25C A35U U54C U60C	0.11
C14A U66C C81G	0.97
C14G U31A G33A U60C	0.18
C14U A20U U51A	0.34
A13U U26A A57G C62A	0.19
A13U U54C A56U A77U	0.89
A15C A28U A45G U58A U72C U78C	0.16
C14A A18G A35U U60C	0.21
A13U U49C U54C	0.28
A13U U31A A56G U60C	0.15
A13U U26G U54C U66C U80C	0.07
C14A A15C A28G U43C U51A U58C U80A	0.07
C14U U58C U78C	0.54
A13U U25C U26C A35U	0.09
A13U U41G A65G	0.12
A13U U72C U80C	1.32
C14G C44U C50A U69C	0.11
A13U U26G A28G	0.15
C14U U69C U80A	0.97
A13U U51C C79U	1.24
A13U U31A C39U G42A U43C U74C	0.13
C14A A45G G63C U69C	0.5
C14U A20G U26A C29U U58C	0.12

Variant	self-cleavage
A15C A28U G30U G70C U74A	0.08
C14G A35G U80C	1.29
A13U U41C U51A U69C	0.57
C14U A18G A47G A75G	0.79
C14A A35U U41A U43C A56G	0.18
C14A U41C A45C	0.37
A13U U31G U41G U43C U51A A56G G61A	0.12
C14U A18G A35U	0.23
C14U A15G G52U	1.19
C14A A20G U69C U74C	0.41
C14U U31C U41C U60C A64G	0.12
C14U A28G U49C C59A	0.23
A13U G53A A56G U72C	0.91
A13U U41A U69A	0.14
C14U U54C A64G	1.17
A15C A35U U54C U72C A77G	0.71
A13U U25C U26C G46A U60A A64G U74C	0.06
A13U U26A A56U A65U	0.11
A13U U26C U31A U41C G52C	0.1
A13U U74A U78C	1.26
A15C A20G A75U	0.7
A13U U60C U76A	0.64
A13U U25C U48C	0.07
A13U U26C U48C U72C A75G	0.11

Variant	self-cleavage
A13U U49C U58C U69C	0.11
A13U U31C U76C	1.17
C14A G24A U26A A47G	0.09
C14U G24A U51C U66C	0.17
C14A A21G A35U U43G	0.05
A13U U43A A45G G61C U66C	0.12
A15C A21U U66A	1.11
A13U U41C U51C A56G U60C U78A	0.28
C14U U48C A56G U72A	0.53
A15C A20G A28U U60C G70A	0.15
C14U A20G U54C A56U	0.45
C14A C29A U51A G73A U76C	0.97
C14U U48A U80A	0.36
A13U U54C G63U	1.19
A13U U25C U54A G63A U69C U76C	0.2
C14A A28G G42A A45U A56G G61A	0.04
A15C A21G A64U	0.1
C14U A15U A20G	0.54
C14U G24A C50A	0.08
C14A A18U A47G	0.31
C14A A15G A28G U43A U66C U76G A77G	0.17
A13U U25C U41G	0.15
A13U U41C A47G U51A U72C	1.16
